Source: ChEMBL document CHEMBL4888484, “Replenishing the malaria drug discovery pipeline: Screening and hit evaluation of the MMV Hit Generation Library 1 (HGL1) against asexual blood stage Plasmodium falciparum ,using a nano luciferase reporter read-out” (2022)
About 540 (0.36%) of roughly 150,000 compounds showed an effect of 50% or more. Some of the results follow.

Test system: Plasmodium falciparum
Test: Primary screen in NF54 nanoGlo assay, in single point, at 2uM, 72h; a lower Z score goes with more inhibition
Assay type: functional, Erythrocyte
Conditions: timepoint 72 hour

| Structure (SMILES) | % Inhibition | Z score |
| --- | --- | --- |
| Cn1cnnc1-c1nn(C)c2c1CN(C(=O)Cc1cccc(F)c1)CC2 | -12% | 1.76 |
| Cc1cc(C)c(NC(=O)[C@H]2CC(=O)N(c3ccc(OCc4ccc(Cl)cc4)cc3)C2)c(C)c1 | -5% | 0.58 |
| Cc1ccc([C@H]2C[C@@H](C(F)(F)F)n3ncc(C(=O)N4CCN(c5ccc(F)cc5)CC4)c3N2)cc1 | -5% | 0.75 |
| CN(C)c1ncc(CN2CCC[C@H](C(=O)Cc3ccccc3)C2)cn1 | 1% | -0.08 |
| Cc1nnc(C(C)NC(C)[C@H]2COC(C)(C)O2)s1 (some centres not stated) | 16% | -2.03 |
| Cc1cccc(C(=O)N(CC2CCN(C3Cc4ccccc4C3)CC2)C[C@H]2CCCO2)n1 | -1% | 0.08 |
| CCn1ncnc1[C@H](C)Nc1nnc(C2CC2)o1 | 0% | 0.04 |
| Cc1nn2cc(S(=O)(=O)N[C@H]3CC(=O)N(C(C)C)C3=O)cnc2c1Cl | -2% | 0.22 |
| COc1cc(NC(=O)Nc2ccc(Nc3ccc(C)nn3)cc2)cc(OC)c1 | 1% | -0.1 |
| O=C(Cn1ccnn1)NC1CCCCCC1 | 0% | -0.08 |
| Cc1nc(CNC(=O)NC2CCCC2CCC(C)C)no1 (configuration not stated) | -5% | 0.88 |
| CN(C)c1nc(N2CCN(C3CCCCC3)CC2)nc2c1CN(S(=O)(=O)c1ccc(Cl)cc1)CC2 | -1% | 0.28 |
| Cc1nc2ccc(Cl)cc2cc1C(=O)N1CCN(Cc2ccc3c(c2)OCCO3)CC1 | -4% | 0.7 |
| CC(C)CN1CC[C@H](c2nc3ccc(C#N)cc3[nH]2)C1 | 32% | -3.6 |
| O=S(=O)(NCC1CN2CCCC2CO1)c1cccs1 (configuration not stated) | -11% | 1.28 |
| O=C(Cc1noc(COCc2ccccc2)n1)NC1CCCCC1 | -8% | 0.97 |
| CCCn1ncc(C(=O)N2CCC3(CCC(=O)N([C@H]4CCN(C)C4)C3)CC2)c1C | -20% | 2.09 |
| O=C(Cn1cnc2ccccc21)NC(c1ccc(F)cc1)[C@H]1C[C@@H](O)C1 (some centres not stated) | -7% | 1.25 |
| c1cncc(COC2CCN(c3cc([C@H]4CCOC4)ncn3)CC2)c1 | 3% | -0.34 |
| CC(C)Oc1ccc([C@@H](O)CNC(=O)C(C)(C)c2cccs2)cc1 | -1% | 0.14 |
| COc1cccc(NS(=O)(=O)c2cc(C(=O)N3CCN(c4ccccc4)CC3)ccc2NCc2ccc(F)cc2)c1 | 2% | -0.18 |

| Structure (SMILES) | % Inhibition | Z score |
| --- | --- | --- |
| CC1CCN(C(=O)[C@H]2CCCN(S(=O)(=O)c3ccccc3)CCc3nnc(-c4cccnc4)n3CC2)CC1 | 6% | -0.77 |
| Cc1cc(-c2nc(CC3CCN(C)CC3)nn2CCO)c2c(C)noc2n1 | 4% | -0.75 |
| CC(NC(=O)c1cccn1Cc1ccccc1)C1CCCO1 (configuration not stated) | -14% | 1.87 |
| Cc1nn(C)c(C)c1[C@H](C)n1cnc2cnccc2c1=O | 0% | 0.07 |
| CCCC1CCC(N(C(=O)c2cnc3c(c2)nnn3C)C(C)C)CC1 (configuration not stated) | -20% | 2.74 |
| CC(C)(C)OC(=O)N1CCCC2C(N)C(C)(C)C21 (configuration not stated) | 6% | -0.85 |
| Cc1cc(C)cc(NC(=O)C2CCC(CNS(=O)(=O)c3ccc4c(c3)C(C)(C)C(=O)N4C)CC2)c1 (configuration not stated) | -13% | 1.23 |
| COc1ccc(-c2cc(C)no2)cc1S(=O)(=O)CCC(=O)Nc1ccccc1C(F)(F)F | -17% | 2.23 |
| Cc1ccccc1CC(=O)N1CCN(c2cccc3c2C(=O)N(C2CCCCCC2)C3=O)CC1 | -7% | 0.94 |
| N#Cc1cc(CN2CC[C@H](NC(=O)c3ccccn3)[C@@H](O)C2)c[nH]1 | -7% | 0.9 |
| Cc1cc2cc[nH]c2cc1N1C(=O)[C@H](C)N(C2CC2)C1=O | -20% | 3.78 |
| COC1(C(F)(F)F)CN(C(=O)Nc2ccnc(CN(C)C)c2)C1 | -5% | 0.85 |
| COCC[C@H]1CCCN(Cc2nonc2C)C1 | -8% | 0.91 |
| CC[C@H](C)[C@H](NC(=O)c1cccnc1)c1nc2ccccc2[nH]1 | -9% | 1.06 |
| CCS(=O)(=O)NCCS(=O)(=O)N(C)[C@H]1CCc2ccccc21 | 2% | -0.27 |
| O=C(NC(Cc1ccncc1)[C@H]1C[C@H](O)C1)c1ccnnc1 (some centres not stated) | -5% | 0.93 |
| CN(C)c1ncn(-c2cccc(NC(=O)NC3CCCCC3C(N)=O)c2)n1 (configuration not stated) | -5% | 0.93 |
| CN1C(=O)C(C)(C)N(C(=O)C23CC(C2)C3)c2ccccc21 | -18% | 2.61 |
| O=C(NS(=O)(=O)Cc1ccc2c(c1)COC2)C1CC2CCC1C2 (configuration not stated) | 5% | -0.6 |
| COc1ccnc(CN(C)Cc2nc(C)cs2)c1 | 7% | -1.3 |
| CCc1ccc(CNC(=O)[C@H]2CCc3nc(N4CCN(C(C)=O)CC4)sc3C2)cc1 | -4% | 0.82 |

| Structure (SMILES) | % Inhibition | Z score |
| --- | --- | --- |
| CCc1ncnc(O[C@H]2CCN(C(=O)c3ccccn3)C2)c1F | -3% | 0.46 |
| Cc1cnc(C(=O)Nc2ccc3c(c2)OCCO3)cn1 | -15% | 1.87 |
| O=C(Nc1ccccc1Cl)c1ccc2nc(N3C(=O)CCC3=O)sc2c1 | -7% | 1 |
| CCNC(=O)N(C1CC1)[C@H]1CCOC2(CCN(C(=O)c3ccnn3C)CC2)C1 | 5% | -0.77 |
| O=C(N1CCCC1)C1(F)CCN(Cc2ccccn2)CC1 | -6% | 0.74 |
| CCCN(CC#N)C(=O)C(C)(C)c1cccs1 | -1% | 0.12 |
| COCCCC(=O)Nc1cc(C)c(Br)cn1 | 34% | -4.97 |
| N#Cc1ccccc1C(=O)N1CCC2(CC1)[C@H](O)C[C@@H]2OCCO | -10% | 1.96 |
| COc1ccc(OC)c(NC(N)=NCCc2cccc(O)c2)c1 | 0% | 0.05 |
| NS(=O)(=O)c1cnn(-c2ccc(NCc3ccccc3)cn2)c1 | -10% | 1.39 |
| O=C(Nc1ccc(F)cc1F)[C@H]1CCCN(S(=O)(=O)Cc2ccc(Cl)cc2)C1 | -3% | 0.58 |
| Cc1cccc(N(C)C(=O)CCn2nnc3ccccc3c2=O)c1C | -13% | 1.51 |
| CCc1cc(N(CCO)C2CCCC2)n2ncnc2n1 | -6% | 0.85 |
| COc1ccc(-c2cn3ccc4cc(OC)c(OC)cc4c3c2-c2ccc(OC)c(OC)c2)cc1 | 2% | -0.28 |
| Cc1ccccc1C(=O)N1[C@H](C(=O)NCc2cccnc2)COC12CCN(C(=O)c1ccccc1Cl)CC2 | -10% | 0.94 |
| Cc1cc(NC(=O)[C@@H]2CC=CCC2)no1 | -8% | 0.71 |
| Cn1cc(C(=O)NCCCN2CCCC2=O)c2cccnc21 | 0% | -0.04 |
| CCOC(=O)c1nn(Cc2ccc(OC)cc2)c2c1CN(C(=O)[C@@H]1CCCO1)CC2 | -8% | 1.05 |
| COCCOC(=O)N1CCC(c2nnc(CN3CCOCC3)n2C)CC1 | 7% | -1.01 |
| CN(Cc1ccsc1)C(=O)CC[C@]1(Cc2ccc(F)cc2)CCC(=O)N1 | -8% | 1.41 |
| CCc1nsc(N[C@@H](C)c2ccc(NC(=O)NC3CC3)cc2)n1 | -6% | 0.65 |

| Structure (SMILES) | % Inhibition | Z score |
| --- | --- | --- |
| CCc1ccccc1NC(=O)N1CCN(Cc2nc3ccc(Cl)cc3o2)CC1 | -30% | 2.64 |
| Nc1nnc(CCNC(=O)c2cscc2C(F)(F)F)o1 | -7% | 0.67 |
| CCC(C)(C)OC1CN(C(=O)c2cc3cccc(F)c3o2)C1 | 29% | -3.93 |
| O=C(Cc1csc(NC(=O)c2ccco2)n1)N[C@H]1CCC[C@H]1Oc1cc(F)cc(F)c1 | -17% | 2.15 |
| COc1ccc(C(=O)N2CC3(C[C@@H](c4noc(-c5ccccn5)n4)N(C)C3)C2)cn1 | -10% | 1.61 |
| CCCOc1ccc(CN2C[C@@H](CO)[C@H](c3ccncc3)C2)cc1 | -9% | 1.48 |
| CCCN1CCN(CCCNS(=O)(=O)c2ccc3c(c2)C(C)(C)C(=O)N3C)CC1 | -6% | 0.79 |
| CC(C)CN1C[C@H](OCc2ccccc2F)CN(C(=O)C(C)(C)O)CC1=O | -17% | 1.93 |
| CN1CC(=O)N2C[C@@H](n3ccnc3-c3ccc(-c4cc[nH]n4)s3)C[C@H]2C1=O | -11% | 1.27 |
| O=C1C[C@H](c2nc(CCCc3ccccc3)no2)CN1CC1CC1 | -12% | 1.59 |
| Cn1c(C(=O)Nc2ccccc2C(N)=O)ccc1-c1ccccc1Br | -3% | 0.26 |
| CCOc1ccc(-c2cn(C3CN(C(=O)c4cc(C)no4)C3)nn2)cc1 | -9% | 1.33 |
| O=C(Cn1ccc2occc2c1=O)N[C@H](c1ccc(F)cc1)C1CCCC1 | -2% | 0.3 |
| CC(C)n1nnc2cc(S(=O)(=O)N(C)CC(=O)NCCCN3CCCC[C@@H]3C)ccc21 | -14% | 2.26 |
| C[C@H]1CN(C(=O)c2ccc(CN3CCc4ccccc4C3)cc2)CCCO1 | 2% | -0.3 |
| Cc1cc(C(=O)N[C@H](CO)C(C)C)c(F)cc1F | -17% | 1.53 |
| CCn1c(C)c(CN2CCC(C(=O)NC3CCCC3)CC2)c2ccccc21 | -10% | 1.36 |
| Cc1nn2c(-c3ccc(-c4ccccc4)cc3)ccnc2c1Cl | -12% | 1.64 |
